In PubChem BioAssay AID686978 (National Center for Advancing Translational Sciences (NCATS), 2013):
Screen size: about 420,000 compounds; about 64,000 (15%) were called active. The inconclusive results got no clear call from the source; some entries with a clear call stand among them for comparison. The call rests on the fitted dose curve; in most records, active means well fitted inhibition curve with a large enough effect; inconclusive means small, poorly fitted or top-dose-only effect; inactive means flat fitted curve, though single readings scatter. Potencies of inconclusive entries are left out as doubtful fits.

assay: qHTS for Inhibitors of human tyrosyl-DNA phosphodiesterase 1 (TDP1): qHTS in cells in absence of CPT; details: DT40 Tdp1-/- hTDP1 cells, no CPT, ATP luminescence, 48 h; activity change, negative = growth inhibition: at 46.2 µM (top of the series) unless noted; further: nearly all actives have a fitted effect of over 55% in size
In short: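 Stably hTDP1-transfected Tdp1-null chicken DT40 cells were treated with library compounds minus camptothecin and grown for at least 48 hr at 37 °C, after which cellular ATP was quantified by luminescence.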
On the % scale 0 is the no-effect control and ±100 the full control effect; potency means the concentration at half of the fitted maximal effect; tags describe the fitted curve by direction and shape.

Compound | Potency | activity change, negative = growth inhibition
COc1ccc(Cc2c(C(C)(C)C)nc3ccc(Cl)cn23)c(C)c1 | inconclusive [inhibitor, single point] | –
CC(C)Cc1nnc(NC(=O)CCC(=O)NC2CCCc3ccccc32)s1 (stereo not drawn) | inconclusive [inhibitor, partial curve] | –
Cn1cccc1C(=O)NNC(=O)c1ccccc1Br | inactive | –
Cc1ccc(S(=O)(=O)Cc2nc(-c3ccc(C(=O)NCc4ccccc4)cc3)oc2C)cc1 | inconclusive [inhibitor, single point] | –
CCOC(=O)C1=C(C)OC(N)=C(C#N)C1c1ccccc1 (stereo not drawn) | inconclusive [inhibitor, partial curve, poor fit] | –
Cn1c(SCC(=O)Nc2ccccc2F)nc2c(c1=O)SCC2 | inconclusive [inhibitor, single point] | –
Cc1cc(C)c(C)c(S(=O)(=O)NCc2ccc(C(=O)N3CCCCC3)cc2)c1C | inconclusive [inhibitor, single point] | –
COc1ccc(/C=N/NC(=O)COc2ccc(Cl)cc2Cl)cc1Cn1nc(C)cc1C | inconclusive [inhibitor, single point] | –
COc1ccccc1CN1CCN(Cc2ccc3ccccc3c2)CC1 | inconclusive [inhibitor, single point] | –
COC(=O)Cn1c(=NC(=O)c2ccc(S(=O)(=O)N3CCc4ccccc4C3)cc2)sc2cc(OC)ccc21 | inactive | –
Nc1nc2ccc(C(=O)Nc3ccc(N4CCOCC4)cc3)cc2s1 | inconclusive [inhibitor, single point] | –
O=C(c1ccc2c(c1)CCN2S(=O)(=O)c1ccccc1)N1CCN(c2ccc(F)cc2)CC1 | active: 14.6 µM | –
COc1cccc(N2CCN(C(=O)c3cnn(C(C)(C)C)c3C3CCN(C(=O)OC(C)(C)C)CC3)CC2)c1 | inconclusive [inhibitor, single point] | –
Cc1ccc(NC(=O)CSc2nc3ncccc3[nH]2)cc1F | inconclusive [inhibitor, partial curve] | –
Nc1cccc(-c2cn3cccnc3n2)c1 | – | inconclusive: -35.3% [inhibitor]
COc1ccc(S(=O)(=O)N2CCC(C(=O)Nc3ccc(S(=O)(=O)N4CCCC4)cc3)CC2)cc1OC | active: 29.1 µM | –
COc1ccc(OCCn2cc(C(=O)C3CCCCC3)c3ccccc32)cc1 | inconclusive [inhibitor, single point] | –
O=C(NCC(c1cccs1)N1CCOCC1)c1ccccc1NS(=O)(=O)c1ccc(Cl)cc1 (stereo not drawn) | inconclusive [inhibitor, single point] | –
